Test results published in paper PMC7819943, “Rice protein-binding microarrays: a tool to detect cis-acting elements near promoter regions in rice”.
Some of the results follow.

Target: T1, OsWOX13 (Oryza sativa, UniProt Q5QMM3 1-267)
T1 sequence: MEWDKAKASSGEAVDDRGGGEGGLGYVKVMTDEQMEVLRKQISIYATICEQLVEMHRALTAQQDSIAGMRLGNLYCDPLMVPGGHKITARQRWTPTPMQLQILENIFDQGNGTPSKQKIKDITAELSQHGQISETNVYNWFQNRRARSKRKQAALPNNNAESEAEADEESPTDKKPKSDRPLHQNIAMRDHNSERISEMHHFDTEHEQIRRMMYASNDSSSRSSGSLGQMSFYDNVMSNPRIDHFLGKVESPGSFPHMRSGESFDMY
Experiment: protein-binding microarray (RPBM); PBS, 2% BSA, 51.3 ng/ul salmon testes DNA, 50 uM zinc acetate, 200 nM TF, 25 C, 1 h; high values mean tight binding
Conditions: protein: recombinant; tags: N-terminal polyhistidine and DsRed monomer fusion (pET32a); label: CyDye5-dUTP incorporated in the synthesized complementary strand; 3' TTTTT single-stranded linker to array surface; dsDNA, one strand shown
Summary of the method: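 The binding signal for each feature is its fluorescence intensity in arbitrary units. An Axon 4000B scanner was used to read a custom Agilent array that had been made double-stranded with Cy5-dUTP primer extension, blocked with 2% BSA, incubated at 25 °C for 1 h with 200 nM protein in PBS, 2% BSA, salmon testes DNA and 50 µM zinc acetate, and washed. The protein was an N-terminal polyhistidine–DsRed transcription factor fusion from E. coli BL21-CodonPlus, purified on Ni–NTA.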

Sequence | binding signal
AGGTGGACCCACTAATTAATTTTGCCAATTAAATCTCCATCGGAGTCACCTAGTGCAG | 14000 fluorescence intensity (a.u.)
AAACAAACTAACATGGATTGATTTTCTATAGGATGGAGGGCGGAGTCACCTAGTGCAG | 25200 fluorescence intensity (a.u.)
CCAATATTAATTTCGGTAAAATACGAAATGACTAATATGCCGGAGTCACCTAGTGCAG | 6210 fluorescence intensity (a.u.)
CTACAATTATTTATATATTTTAAGTTTAAATATACTGTAACGGAGTCACCTAGTGCAG | 5320 fluorescence intensity (a.u.)
TTCATTAATTAATAATACTAGCCTAGTGGTGACACCACCCCGGAGTCACCTAGTGCAG | 24100 fluorescence intensity (a.u.)
TTCCTTATCAATCTAATAAATAGTCGCCATTGCAGATGGACGGAGTCACCTAGTGCAG | 10900 fluorescence intensity (a.u.)
AATAGAAATTGGACATTCTACCGCTGCTAAGATTTTGCCACGGAGTCACCTAGTGCAG | 3630 fluorescence intensity (a.u.)
AGAATTGAATTAACTTCCCTGCAAATATCACAGAATGCTTCGGAGTCACCTAGTGCAG | 3910 fluorescence intensity (a.u.)
CAAGCTAAATTGTCAAATAGGTCGAATATTTTGCATCCTGCGGAGTCACCTAGTGCAG | 6560 fluorescence intensity (a.u.)
GATGATTTAGCCCAAAAGGTGTTACTGATCACACTACTTGCGGAGTCACCTAGTGCAG | 10600 fluorescence intensity (a.u.)
TCGTGATTTTGATCAACTTAACATGGAAAATGGCCATCCTCGGAGTCACCTAGTGCAG | 32200 fluorescence intensity (a.u.)
GTATTACGCTATATTTAACATAATTGCTCCTATCATGTGTCGGAGTCACCTAGTGCAG | 3680 fluorescence intensity (a.u.)
TCCACCAATAATTAGACCAATCGTGAAACTATCGAGAGAACGGAGTCACCTAGTGCAG | 7660 fluorescence intensity (a.u.)
CAAAATGGGATTTAAATTTTGTCTCGGACCTCACTAAAATCGGAGTCACCTAGTGCAG | 6390 fluorescence intensity (a.u.)
AAAATTAAAAGGACATGATTATTGATACCGGATTTTGAAACGGAGTCACCTAGTGCAG | 11200 fluorescence intensity (a.u.)
AATTAATTACGTGCTAGTGTACGCTATTCACTACTTCATGCGGAGTCACCTAGTGCAG | 29600 fluorescence intensity (a.u.)
TTAAATTAATTTGGGCCATTCGATCTTCATCAGGATATCTCGGAGTCACCTAGTGCAG | 39800 fluorescence intensity (a.u.)
CGTTGATCATTTATTGACATTATAGTTACTCTGCAGTGCACGGAGTCACCTAGTGCAG | 14600 fluorescence intensity (a.u.)
AAATAATAATTATTTATTTTGTTGTGACTTGGTTTATAACCGGAGTCACCTAGTGCAG | 14300 fluorescence intensity (a.u.)
GATAATAATATTGCAATTTGCAAACATTACACTTGTACAGCGGAGTCACCTAGTGCAG | 4080 fluorescence intensity (a.u.)
CTTAATTAAGTCACCATAAACACGGCGCGCCATTAGGGGACGGAGTCACCTAGTGCAG | 21300 fluorescence intensity (a.u.)

Sequence | binding signal
CATCATTTCAATTTCAATTAAACTTTTAATTTTAGCGTGACGGAGTCACCTAGTGCAG | 7710 fluorescence intensity (a.u.)
GACTAATCACAATGCATACGTCAGATGAAGCGTGCGTAGCCGGAGTCACCTAGTGCAG | 5180 fluorescence intensity (a.u.)
CTAGATTGTTGGTGTTGTGGGGTCAGGCTAAGCTACAAGTCGGAGTCACCTAGTGCAG | 15100 fluorescence intensity (a.u.)
TCTGCATTTATTAATAATTTTATAGATGAATAAATAGGTTCGGAGTCACCTAGTGCAG | 3750 fluorescence intensity (a.u.)
TACTACCAAATTGCAAATCACAAATTGAATGCTATCAGATCGGAGTCACCTAGTGCAG | 29900 fluorescence intensity (a.u.)
TAATAATTAATGGTATCATAAATAGAAAATAGAAAGCATGCGGAGTCACCTAGTGCAG | 24300 fluorescence intensity (a.u.)
CTTCTTCAATCCAGCTAATTAATTACACACACCTGACACACGGAGTCACCTAGTGCAG | 27200 fluorescence intensity (a.u.)
CGACAAAATTTATTTAGAGTGCTTCTAATGCATTTGTAACCGGAGTCACCTAGTGCAG | 3590 fluorescence intensity (a.u.)
AATTAATTGATAAAAGAGTACTAGCACGCAGTAACAATATCGGAGTCACCTAGTGCAG | 10300 fluorescence intensity (a.u.)
TGATGATGACATGCTGATCGGTTCATCTGTAAACGAGTGTCGGAGTCACCTAGTGCAG | 4170 fluorescence intensity (a.u.)
GTAGATGACTAATCATTGCACCATTCTCCATTTATAGCATCGGAGTCACCTAGTGCAG | 15800 fluorescence intensity (a.u.)
GCAAATGAGGACAATCATTGATGGTAAGCTTGGTAAGACTCGGAGTCACCTAGTGCAG | 16000 fluorescence intensity (a.u.)
CTAATTACGTCATGATTTGACAATGTGGTGTGGTGCTACACGGAGTCACCTAGTGCAG | 37500 fluorescence intensity (a.u.)
CCCAAAATATATGTGACTGATACGTGGGTCCCATTGACACCGGAGTCACCTAGTGCAG | 4590 fluorescence intensity (a.u.)
TTGATTGGCAAGCCATGGTGCACGTACGCCACGGCAATGACGGAGTCACCTAGTGCAG | 34600 fluorescence intensity (a.u.)
CCATAATGATTTTACTGTTACTGGGATGGCAATATCTTTCCGGAGTCACCTAGTGCAG | 17700 fluorescence intensity (a.u.)
TCCCTCTGATTTCATTTTAATTGACGTTTTGGACAATGACCGGAGTCACCTAGTGCAG | 43400 fluorescence intensity (a.u.)
TTTAGAATTCATTTAATTTAATGCGATTTAAAATTTAAAACGGAGTCACCTAGTGCAG | 4410 fluorescence intensity (a.u.)
TTTAATTCCAATCTACGAACTGGGCCAAGAATAAATATGGCGGAGTCACCTAGTGCAG | 14000 fluorescence intensity (a.u.)
AAAATTGAATAAGACGAGTGGTCAAACGTTGCAAGCAAAACGGAGTCACCTAGTGCAG | 6750 fluorescence intensity (a.u.)
AATTTCAATCAAACTTTCAATTTTGACGTGAAGTAAACCCCGGAGTCACCTAGTGCAG | 21500 fluorescence intensity (a.u.)

Sequence | binding signal
AATATTTATAATTAATTTTCAAACATCCGATGTGATAGGGCGGAGTCACCTAGTGCAG | 21500 fluorescence intensity (a.u.)
AATATTGACATAACCAATTTATCTGAACATAGAGTTGTTGCGGAGTCACCTAGTGCAG | 17400 fluorescence intensity (a.u.)
AATTTGACAGATGTAATTATAGTACAATCGTAGTGTAATTCGGAGTCACCTAGTGCAG | 30000 fluorescence intensity (a.u.)
AAGATGTCATCACAAATCTATCACACTGGCCCTGATAGCCCGGAGTCACCTAGTGCAG | 5410 fluorescence intensity (a.u.)
AGTTGATTTGTCGAATATGAGCTTAAAGTTGCCTCTACCGCGGAGTCACCTAGTGCAG | 23500 fluorescence intensity (a.u.)
TTTTGATTTTGTGAGGATTCATCTCACATGCACGCACTAGCGGAGTCACCTAGTGCAG | 4120 fluorescence intensity (a.u.)
TGTGACAGGAGAATTCCTCACATCTCCTGGGTGTGTTCGTCGGAGTCACCTAGTGCAG | 9490 fluorescence intensity (a.u.)
GCCAACTGTTGATTACCGGGTGCGCGCCCGCGCGATTCACCGGAGTCACCTAGTGCAG | 6680 fluorescence intensity (a.u.)
ATAAATTGATGCGATAAATCTCAGCTAAATTACTGTACTTCGGAGTCACCTAGTGCAG | 36900 fluorescence intensity (a.u.)
GGGATTATTATAATCCAGATTATTGAGAGTAAGCTGAAAGCGGAGTCACCTAGTGCAG | 5050 fluorescence intensity (a.u.)
TATCCTGATTTTATGATTGTATCTCGATTATATGATATGACGGAGTCACCTAGTGCAG | 18700 fluorescence intensity (a.u.)
AAACCCATATAATTGGCAATCTACTCAGGATGACAATGCTCGGAGTCACCTAGTGCAG | 28800 fluorescence intensity (a.u.)
TCTGGTAATTTATTGTCCTCATCTATTGCAGGAAGTTGCACGGAGTCACCTAGTGCAG | 17800 fluorescence intensity (a.u.)
ACACCAATGTTAATTGTTAATTGTTAGCCTGTCAATATAGCGGAGTCACCTAGTGCAG | 25500 fluorescence intensity (a.u.)
GTTAAATGGCTAAATGACTCATTTAATTCGCATTAGTGATCGGAGTCACCTAGTGCAG | 30000 fluorescence intensity (a.u.)
TAACAACAAAACAAATTATAGATTTTGTATGTAAACTGTGCGGAGTCACCTAGTGCAG | 3590 fluorescence intensity (a.u.)
TTAATTAGGCTTAATAAATTCGTCTCGCAGTTTCCTGACGCGGAGTCACCTAGTGCAG | 6150 fluorescence intensity (a.u.)
GGTCCAATCAACATGAATAACAAAACAAAGGAAATGGATTCGGAGTCACCTAGTGCAG | 17100 fluorescence intensity (a.u.)
TTTTCTTTCTTGATTGGGAAGGAAATTGGTGGTTAATCTCCGGAGTCACCTAGTGCAG | 23700 fluorescence intensity (a.u.)
GTAATAAATAAATAAATTAAAAGAGACAGTGTAATTATTCCGGAGTCACCTAGTGCAG | 4790 fluorescence intensity (a.u.)
GGGATTGACAAGTGGGCCCATGGGAAAATTTGTCTTTAACCGGAGTCACCTAGTGCAG | 31700 fluorescence intensity (a.u.)

Sequence | binding signal
CACTATCAATTTGACCATGGAATTTCCAATCTGGTGGATACGGAGTCACCTAGTGCAG | 6840 fluorescence intensity (a.u.)
ATAGTTAATTTGTAGGAATCATAACGATAATATCGAACCTCGGAGTCACCTAGTGCAG | 19700 fluorescence intensity (a.u.)
AACATATTACTGTCAACTGATGACTTGGCTGTATTAGAAGCGGAGTCACCTAGTGCAG | 8000 fluorescence intensity (a.u.)
TTCAATAATTTTCTCCAACTTCGCTGGACTTTGAAAGGCCCGGAGTCACCTAGTGCAG | 4950 fluorescence intensity (a.u.)
ATCAAATTTTGAAAATTCAAAATTTGAATTGTCCAAATGACGGAGTCACCTAGTGCAG | 3610 fluorescence intensity (a.u.)
ACCATGGTAATTAGGCTTATCACGTGTGCGGAAACGATAACGGAGTCACCTAGTGCAG | 10300 fluorescence intensity (a.u.)
AAAATATATATTGAGAATTGATTAGTAATTTACGCAGCAACGGAGTCACCTAGTGCAG | 33100 fluorescence intensity (a.u.)
TCTTATCTATTAGTAAATCATTTACTCATGGGCTGAGTCTCGGAGTCACCTAGTGCAG | 6260 fluorescence intensity (a.u.)
GATGAAGATTGATATTACCTGCGGCCGCCGGCGCCGCTGTCGGAGTCACCTAGTGCAG | 7110 fluorescence intensity (a.u.)
AGACTAATAATAACACAAATTATAGATTCCGCTTGTAAACCGGAGTCACCTAGTGCAG | 6720 fluorescence intensity (a.u.)
CCGACCCGTTGGATTGATAAAACCAACTGCTTCCCGCTCCCGGAGTCACCTAGTGCAG | 6190 fluorescence intensity (a.u.)
TGTTGATTGCAGGATCAAATCAACTGGCATGCTCATGAACCGGAGTCACCTAGTGCAG | 41900 fluorescence intensity (a.u.)
AATATAATTTACTTCATTATATCACTTCACTGCCAATAGCCGGAGTCACCTAGTGCAG | 18300 fluorescence intensity (a.u.)
CTAATAATTATTACTTCCTTCATTTATATTATAAGTTGTTCGGAGTCACCTAGTGCAG | 39000 fluorescence intensity (a.u.)
AATATTAATGTTAATGAATCGGTCTATCTAGATTCATTGTCGGAGTCACCTAGTGCAG | 3200 fluorescence intensity (a.u.)
AAGCATCATTGACGTGATTACCGTCCGGTGACTGACGTACCGGAGTCACCTAGTGCAG | 20300 fluorescence intensity (a.u.)
CATCAATCACACACGTTGAGAGAACCTAACTCCCTTCGTCCGGAGTCACCTAGTGCAG | 25200 fluorescence intensity (a.u.)
TTGACAGCTAGATGAGTCCTCAGATGAATCATGATGGCATCGGAGTCACCTAGTGCAG | 6220 fluorescence intensity (a.u.)
CCATGATTTGATAATGTGGTGCTACAGTAAACATTTGCTACGGAGTCACCTAGTGCAG | 39700 fluorescence intensity (a.u.)
AATTATTAATACTTAATTAGTCATGTGCTACTCGTTCTGCCGGAGTCACCTAGTGCAG | 15000 fluorescence intensity (a.u.)
GCAAGTAACTATTAATTGCACATTTCTTGGTTCATTAACTCGGAGTCACCTAGTGCAG | 4570 fluorescence intensity (a.u.)
